This is an account of results in patent US20150165067A1.

What all share (test): cell-based or functional assay
Assay [1] concerns the target human FGFR3 Y373C, endogenous on KMS-11 multiple myeloma cells (human), P22607.
Assay [2] has as its target human FGFR3(IIIc) S249C on BaF3 cells (human), P22607.
Assay [3] addresses human FGFR3(IIIc) K650E on BaF3 cells (human), P22607.
Assay [4] addresses human FGFR3(IIIc) WT on BaF3 cells (human), P22607.
Assay [5] addresses human FGFR3 K650E, endogenous on OPM-2 multiple myeloma cells (human), P22607.
Assay [6] has as its target human FGFR3 S249C, endogenous on UMUC-14 bladder tumor cells (human), P22607.

Chain of human FGFR3(IIIc) WT on BaF3 cells (human), P22607 (P22607 23-806): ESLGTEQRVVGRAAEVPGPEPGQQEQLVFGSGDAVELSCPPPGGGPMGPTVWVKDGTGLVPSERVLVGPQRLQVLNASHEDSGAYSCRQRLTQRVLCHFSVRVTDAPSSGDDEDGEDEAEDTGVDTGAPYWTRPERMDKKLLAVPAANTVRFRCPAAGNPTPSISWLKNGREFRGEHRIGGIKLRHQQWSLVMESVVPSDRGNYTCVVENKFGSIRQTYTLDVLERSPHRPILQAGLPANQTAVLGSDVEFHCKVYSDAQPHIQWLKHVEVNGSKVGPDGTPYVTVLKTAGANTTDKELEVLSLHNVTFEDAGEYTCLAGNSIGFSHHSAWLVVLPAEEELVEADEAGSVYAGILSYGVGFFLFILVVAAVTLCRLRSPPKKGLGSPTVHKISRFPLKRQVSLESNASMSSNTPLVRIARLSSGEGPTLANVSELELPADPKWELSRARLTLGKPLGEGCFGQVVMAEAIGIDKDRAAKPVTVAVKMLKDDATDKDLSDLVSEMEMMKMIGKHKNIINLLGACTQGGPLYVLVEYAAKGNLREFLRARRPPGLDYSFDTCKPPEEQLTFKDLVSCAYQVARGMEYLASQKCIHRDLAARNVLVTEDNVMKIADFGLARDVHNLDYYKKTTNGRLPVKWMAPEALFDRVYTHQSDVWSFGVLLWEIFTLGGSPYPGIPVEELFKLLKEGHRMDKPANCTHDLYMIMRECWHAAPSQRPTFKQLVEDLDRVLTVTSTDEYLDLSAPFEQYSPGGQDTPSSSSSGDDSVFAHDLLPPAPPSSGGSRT
Chain of human FGFR3 Y373C, endogenous on KMS-11 multiple myeloma cells (human), P22607 (P22607 other isoform, or with tags, fused parts or gaps Y373C Y373C): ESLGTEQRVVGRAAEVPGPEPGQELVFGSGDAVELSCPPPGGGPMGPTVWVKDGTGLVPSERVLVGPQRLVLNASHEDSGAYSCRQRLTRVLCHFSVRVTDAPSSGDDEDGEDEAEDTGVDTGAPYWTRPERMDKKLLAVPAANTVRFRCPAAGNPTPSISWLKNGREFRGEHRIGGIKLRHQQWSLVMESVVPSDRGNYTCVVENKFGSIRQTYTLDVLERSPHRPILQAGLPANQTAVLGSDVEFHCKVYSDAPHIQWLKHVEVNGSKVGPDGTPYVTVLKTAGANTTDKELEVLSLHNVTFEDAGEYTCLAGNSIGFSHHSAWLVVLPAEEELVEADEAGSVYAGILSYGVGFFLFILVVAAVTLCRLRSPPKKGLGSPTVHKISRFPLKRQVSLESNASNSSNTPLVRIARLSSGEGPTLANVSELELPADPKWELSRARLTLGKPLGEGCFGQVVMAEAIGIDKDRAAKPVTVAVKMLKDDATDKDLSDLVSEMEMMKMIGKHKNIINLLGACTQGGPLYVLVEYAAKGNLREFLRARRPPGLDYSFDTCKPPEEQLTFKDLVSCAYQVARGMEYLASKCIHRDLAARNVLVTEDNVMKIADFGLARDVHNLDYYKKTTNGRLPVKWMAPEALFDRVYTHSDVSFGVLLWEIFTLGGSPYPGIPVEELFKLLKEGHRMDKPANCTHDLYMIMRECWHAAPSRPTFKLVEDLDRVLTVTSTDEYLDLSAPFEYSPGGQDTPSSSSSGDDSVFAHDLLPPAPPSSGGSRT
Chain of human FGFR3(IIIc) S249C on BaF3 cells (human), P22607 (P22607 23-806 S249C): as the sequence (P22607 23-806) above, with S227C counted along it
Chain of human FGFR3(IIIc) K650E on BaF3 cells (human), P22607 (P22607 23-806 K650E): as the sequence (P22607 23-806) above, with K628E counted along it
Chain of human FGFR3 K650E, endogenous on OPM-2 multiple myeloma cells (human), P22607 (P22607 other isoform, or with tags, fused parts or gaps K650E K650E): as the sequence (P22607 other isoform, or with tags, fused parts or gaps Y373C Y373C) above
Chain of human FGFR3 S249C, endogenous on UMUC-14 bladder tumor cells (human), P22607 (P22607 other isoform, or with tags, fused parts or gaps S249C S249C): as the sequence (P22607 other isoform, or with tags, fused parts or gaps Y373C Y373C) above

B1: Antibody 1 (antibody, human IgG1, lambda)
heavy: EVQLVQSGAEVKKPGASVKVSCKASGYMFTSYGISWVRQAPGQGLEWMGWVSTYNGDTNYAQKFQGRVTVTTDTSTSTAYMELRSLRSEDTAVYYCARVLGYYDSIDGYYYGMDVWGQGTTVTVSSASTKGPSVFPLAPSSKSTSGGTAALGCLVKDYFPEPVTVSWNSGALTSGVHTFPAVLQSSGLYSLSSVVTVPSSSLGTQTYICNVNHKPSNTKVDKRV[human IgG1 Fc skipped]
light: QSVLTQPPSLSVAPGKTATFTCGGNNIGDKSVHWYRQKPGQAPVLVMYLDTERPSGIPERMSGSNFGNTATLTITRVEAGDEADYYCQVWDSGSDHVVFGGGTKLTVLGQPKAAPSVTLFPPSSEELQANKATLVCLISDFYPGAVTVAWKADSSPVKAGVETTTPSKQSNNKYAASSYLSLTPEQWKSHRSYSCQVTHEGSTVEKTVAPAECS
Take B1: in assay [1], the cytotoxicity IC50 on KMS-11 cells, Antibody 1 mixed with a constant amount of conjugated Fab (10 nM), Cell Titer-Glo, 96 h is 0.11 nM. The IC50 for neutralizing FGF1 (5.16 nM)-induced 3H-thymidine incorporation in BaF3 cells in assay [2] turned out to be 30.4 nM; in assay [3] it was 8.11 nM; in assay [4] it was 11.9 nM. Moreover, the IC50 for neutralizing FGF9 (4.34 nM)-induced 3H-thymidine incorporation in BaF3 cells in assay [2] was determined as 1.5 nM; in assay [3], 2.07 nM; in assay [4], 1.41 nM.

B2: Conjugate 1 (antibody, human IgG1, lambda)
heavy: B1 heavy
light: B1 light
modifications: here or on the partner: DM4 attached through the sulfo-SPDB linker to available lysine residues (positions not given); DAR 3.5 ± 0.5 for the whole antibody
In assay [1], B2 registered a Cytotoxicity Conjugate 1 IC50, KMS-11 (multiple myeloma) cells, Cell Titer-Glo, 96 h of 0.04 nM and a cytotoxicity IC50 (nM), KMS-11 cells of 0.24 nM. Also, the cytotoxicity IC50 (nM), OPM-2 cells in assay [5] is 1.8 nM. In assay [4], this molecule yielded a cytotoxicity IC50 (nM), transfected Baf3-FGFR3(IIIc) cells of 5 nM. Moreover, the Cytotoxicity Conjugate 1 IC50, UMUC-14 (bladder) cells, Cell Titer-Glo, 96 h in assay [6] was found to be 0.5 nM.
